Data from publication PMC12136788.
This is one part of the list.

B1: chr6:83525322:83525423:+|3pUTR|ENSG00000146250|msi1|total|mutant (ssRNA)
RNA: GGGAGUUCUACAGUCCGACGAUCACAAUUACAAUGUGUAUUAUUUAAAAAUGGGAGAAACCGUUUGUUCUAUGAAAUAAACCCCGUUCCGAAACCGGGAAGCUGAGACAUUUUAAGAUCUCAAGUUUUUAUUUAACUAAUACUCAACAGAGGAUUGAGCAUCA
B2: chr3:27418507:27418620:-|CDS|ENSG00000033867|unk|FALSE|bound_elsewhere (ssRNA)
RNA: GGGAGUUCUACAGUCCGACGAUCUGAUGUAGCUUAUAAAGCAAAAGACAGAAAUGACCUCUUAUCUGGAAUUGAUGAAUUUUUAGAUCAAGUAACUGUCCUACCUCCAGGAGAGUGGGAUCCUUCUAUACGCAUAGAACCACCCAACAGAGGAUUGAGCAUCA
B3: chr11:118254921:118255022:-|3pUTR|ENSG00000149573|unk|FALSE|unique (ssRNA)
RNA: GGGAGUUCUACAGUCCGACGAUCACAGCCUCAUUAUUAAGGUCUUAUUUAAUUUCAGAGUGUAAAUUUUUUCAAGUGCUCAUUAGGUUUUAUAAACAAGAAGCUACAUUUUUGCCCUUAAGACACUACUUACAGUGUUAUGACCAACAGAGGAUUGAGCAUCA
B4: chr15:48879495:48879609:+|3pUTR|ENSG00000255302|msi1|total|mutant (ssRNA)
RNA: GGGAGUUCUACAGUCCGACGAUCGACACUAAAUGUGUGUGAAUGUACAAAGAAAACAAACCAUUGCUUAUGCUGUUAUAUACCCGAGAAAUUUUGUUUUGCUUGCUGUUUUAACUUGACAGAUGAAGGACUUCCGUUGAACUUCAACAGAGGAUUGAGCAUCA
B5: chr11:123753582:123754518:-|CDS|ENSG00000221931|control|control|control (ssRNA)
RNA: GGGAGUUCUACAGUCCGACGAUCGUGGUGUCUGUGCUAAAUACUAUCCUCACCCCCCUUCUGAAUCCCUUUAUUUAUACUAUUAGAAACAAGGAGGUGAAGGGAGCCUUAAGAAAGGCAAUGACUUGCCCAAAGACUGGUCAUCAACAGAGGAUUGAGCAUCA
B6: chr16:57471571:57471634:+|3pUTR|ENSG00000102978|msi1_unk|total|mutant (ssRNA)
RNA: GGGAGUUCUACAGUCCGACGAUCACCGCCUUUAUUCAGGGGGCCUAUAAACCCUUCCAGUUCUUGCCCCAGGGCUGGCCUGCCCGCGCUUCAAAUUCCCAGGUGUCCCUAAUUUGAGAAGUAACCUUUUGGAACCGCAUCCGACAACAGAGGAUUGAGCAUCA
B7: chrX:78656995:78658420:-|CDS|ENSG00000179300|control|control|control (ssRNA)
RNA: GGGAGUUCUACAGUCCGACGAUCCCUAUCUGAUCUCAUCACUCAGUGCAUCAGCCUGGAAGAGAAGCCUGAUCCCAAUCCAUUAGGGAAAAGUUCCUCUGCAGAGGGAGAUGGACCCGAGAGUCCACCAGCUGAAAACCAACCCAACAGAGGAUUGAGCAUCA
B8: chr4:56502255:56502306:+|3pUTR|ENSG00000174780|msi1_unk|total|mutant (ssRNA)
RNA: GGGAGUUCUACAGUCCGACGAUCAUUUCAGCUGGAGUCUGAAGAUACUUGUUUCUGUUCAAGUCCCACUUUAAAUUAUGUCUCCGGAGACUGAAAGUGGAAUCUUCUGAGCAUUCCUAAAUAUCUGCUCCGAAAUAUCAUGUGCAACAGAGGAUUGAGCAUCA
B9: chr16:70398910:70399011:-|5pUTR|ENSG00000157350|unk|FALSE|unique (ssRNA)
RNA: GGGAGUUCUACAGUCCGACGAUCCACUUGCAUGGAACCCAAGUCCCCUGAAGCCCCUGUGCUCUCUGUUGUGAUUGGAGUUCUAGGGCUUCCCCGCUGCCGGGAACGAGGGGCCGCCUCAUUGUCUGCUCAUGAACCACAAGGCAACAGAGGAUUGAGCAUCA
B10: chr15:100649042:100649144:+|3pUTR|ENSG00000183475|unk|total|mutant (ssRNA)
RNA: GGGAGUUCUACAGUCCGACGAUCUACCUCUGCUUUUCUUUUGCUGUGCUCUUGUUUUUAACUUAUUUUUUUUUUAACAACUGCCGUACACUACCCUGAGACACUGCAUCUCGAUUUCUAUCUCCCGUCCGAGUUGUACUUUUACAACAGAGGAUUGAGCAUCA
B11: chr10:74136666:74136778:-|CDS|ENSG00000185009|unk|total|mutant (ssRNA)
RNA: GGGAGUUCUACAGUCCGACGAUCUUCAGAGGCUGCAAUUAAGGAUAAUGUGGUCACCGUAUAUGAACUCUCCGAAGAAAUGUCCGACAAUGGAUUUCCACUGGCUACCGAAUCUAACAUUUUGAAAGAAUUGAUUAAACCACCCAACAGAGGAUUGAGCAUCA
B12: chr1:77728514:77728621:-|CDS|ENSG00000077254|unk|total|mutant (ssRNA)
RNA: GGGAGUUCUACAGUCCGACGAUCAGAUCCGCAAACCAUAACCACUGAGGAGACAAUGGAAGAAGACAAGAGCCAGUCGGAUGCCGAUUUUCAGUCUUGUGAAUCUUGCCGCAACAGUGACCGAGCAGAAAAUGAAAAUGGCUCCAACAGAGGAUUGAGCAUCA
B13: chr17:29498396:29498497:+|CDS|ENSG00000160551|msi1|total|mutant (ssRNA)
RNA: GGGAGUUCUACAGUCCGACGAUCCAGCAGCCAAAGCAGCCGUGUUAACAGUCUUCCAGAUGUCUCAGAUGACAAGAGUGAGCCCGACAUGAUGGAGGGAGACCACACAGUGAUGUCUAACAGUUCUGUUAUCCAUUUAAAACCCAACAGAGGAUUGAGCAUCA
B14: chr6:133987709:133987810:+|3pUTR|ENSG00000028839|unk|total|mutant (ssRNA)
RNA: GGGAGUUCUACAGUCCGACGAUCAAUAACAAACCGGAAUUUUUUUUCUUGCAGAUCCGAAAUAAAAACGUGUAUAUAAACUCCCGGGAACCAGACCCGAAGUUUACCGAUAAAGGAUAAUGUUUUAUGUUGCUAAUUUAAUAUCAACAGAGGAUUGAGCAUCA
B15: chrX:50586795:50596694:-|three_prime_utr|ENSG00000158352|control|control|control (ssRNA)
RNA: GGGAGUUCUACAGUCCGACGAUCAGCACUCUGCCACAGCAUCCCUGCCCAGCCAUGUGGGAAGUGCUUUCAAUCUUCUUUGUUAGCAGUUUCUCAGCAAGUAGAUAGCAAUUAGCAGUUUGUUCCAGCCCUCUACCCUGGAUGCAACAGAGGAUUGAGCAUCA
B16: chr19:13095865:13096029:+|3pUTR|ENSG00000008441|msi1|total|mutant (ssRNA)
RNA: GGGAGUUCUACAGUCCGACGAUCCCGCCCCCCACGUGGCCACUUUUCUCUGGAUUUCCGCUGUAAUGUCUUUACUCUUUAUUCCGGGGUGGGGCAUUCAUUGUUUGGGUCUUUUGCUGUUGGAAUGGGAACUCCUCCUCCAUUCAACAGAGGAUUGAGCAUCA
B17: chr8:124550783:124552991:-|three_prime_utr|ENSG00000170873|control|control|control (ssRNA)
RNA: GGGAGUUCUACAGUCCGACGAUCAUUAAUAAAACCUAAUUUGUCUUGAUCCAUUCCACUCUAUAAUAAAACAAAAGAUUUUGUAGGCAACUCGGAAUAUAGCUCUUUUGAAAGUACUCGACACCUUUAGAUAAGAAUUAAAACCAACAGAGGAUUGAGCAUCA
B18: chr10:73251842:73251943:-|CDS|ENSG00000182180|msi1|FALSE|unique (ssRNA)
RNA: GGGAGUUCUACAGUCCGACGAUCUCGGCCGUUCUACCGCAUUGUGGCUGCUCACAACAAGUGUCCCAGGGAUGGCCGUUUCGUAGAGCAGCUGGGCUCCUAUGAUCCAUUGCCCAACAGUCAUGGAGAAAAACUCGUUGCCCUCAACAGAGGAUUGAGCAUCA
B19: chr5:76733371:76733472:+|CDS|ENSG00000181104|msi1|FALSE|unique (ssRNA)
RNA: GGGAGUUCUACAGUCCGACGAUCGAUCCCAGCAGUUAUAACAGCAGUGGGCAGUUGAUGGCAAGUAAAAUGGAUACCUGCUCUAGUAACCUGAAUAACAGCAUAUACAAAAAGCUGUUAACUUAGGAAAAGGGACUGCUGGGACAACAGAGGAUUGAGCAUCA
B20: chr7:38725943:38726055:-|3pUTR|ENSG00000006715|unk|total|mutant (ssRNA)
RNA: GGGAGUUCUACAGUCCGACGAUCGAAAUUUUGGGGUCCACCGUGAAUAUUUUGUUAUUUAUUUGUUUGGCUCAUUCUUUAUACCGUAAUGGAAACAUAAGUCCCGGAGUCCGAAAUGAAUUUUUCCGACCUCCGUAAAACCAUCAACAGAGGAUUGAGCAUCA
B21: chr17:77200548:77200649:+|CDS|ENSG00000129657|msi1|FALSE|bound_elsewhere (ssRNA)
RNA: GGGAGUUCUACAGUCCGACGAUCUAUUGACAAAGCCAGAGAGAUCAUGUGUCAGUCUUUGACGUGGAGAAAGCAGCAUCAGGUAGACUACAUUCUUGAAACCUGGACCCCUCCUCAGGUCCUUCAGGAUUACUACGCGGGAGGCAACAGAGGAUUGAGCAUCA
B22: ENSG00000136451:be:win_1951|3pUTR|ENSG00000136451|bound_else_gene|NA|bound_elsewhere_windowed (ssRNA)
RNA: GGGAGUUCUACAGUCCGACGAUCCAAGGUGGAUGGCUGAUUUUAACCUGAAAUUUUAAAUCCACAGAUUGAGAGCUAGUGUAGAAUUGUCUGUGUUUAUUGUUUUUAUGAGUAAAUACAUGCAUUGUCAUAAUAAAAUGCAUUCAACAGAGGAUUGAGCAUCA

molecular target: MSI1 full-length (mouse, UniProt Q61474 1-362); assay: nsRBNS (natural sequence RNA bind-n-seq); RBNS binding buffer (assumed for nsRBNS): 25 mM Tris pH 7.5, 150 mM KCl, 3 mM MgCl2, 0.01% Triton X-100, 500 ug/ml BSA, 20 U/ml SUPERase-In, 4 C; UNK is unkempt and MSI1 is Musashi-1; names of the RNAs are library labels; protein concentration not given here; high values mean tight binding
Chain of UniProt Q61474 (Q61474 whole entry): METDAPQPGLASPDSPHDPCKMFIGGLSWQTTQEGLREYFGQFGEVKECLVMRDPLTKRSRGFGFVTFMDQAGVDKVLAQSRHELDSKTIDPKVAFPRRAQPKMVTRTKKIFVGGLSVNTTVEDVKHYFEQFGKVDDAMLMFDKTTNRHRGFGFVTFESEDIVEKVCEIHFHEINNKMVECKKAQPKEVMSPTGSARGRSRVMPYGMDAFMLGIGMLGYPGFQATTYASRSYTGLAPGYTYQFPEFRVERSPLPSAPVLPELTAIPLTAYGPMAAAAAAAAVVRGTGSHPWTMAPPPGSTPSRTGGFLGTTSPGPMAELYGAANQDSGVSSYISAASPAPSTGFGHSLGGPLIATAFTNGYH

Binder | binding signal [enrichment R]
B1 | 0.555
B2 | 0.49
B3 | 4.49
B4 | 0.368
B5 | 2.68
B6 | 0.649
B7 | 0.386
B8 | 0.304
B9 | 0.439
B10 | 1.1
B11 | 0.332
B12 | 0.307
B13 | 0.495
B14 | 0.788
B15 | 1.65
B16 | 0.559
B17 | 6.04
B18 | 0.318
B19 | 0.429
B20 | 0.372
B21 | 0.42
B22 | 1.39
